Assay results: PubChem BioAssay AID686978 (National Center for Advancing Translational Sciences (NCATS), 2013)
Hit rate of the full screen: of about 420,000 compounds, about 64,000 (15%) were called active. Inconclusive means that the source gave no clear call. Such entries were picked first, then a sample of the others. The call rests on the fitted dose curve; in most records, active means well fitted inhibition curve with a large enough effect; inconclusive means small, poorly fitted or top-dose-only effect; inactive means flat fitted curve, though single readings scatter. No potency is given beside an inconclusive call; the fits are too rough.

Assay: qHTS for Inhibitors of human tyrosyl-DNA phosphodiesterase 1 (TDP1): qHTS in cells in absence of CPT; further: nearly all actives have a fitted effect of over 55% in size
Settings: DT40 Tdp1-/- hTDP1 cells, no CPT, ATP luminescence, 48 h; activity change, negative = growth inhibition: at 46.2 µM (top of the series) unless noted
Method in brief: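 Compound effects on proliferation are scored in DT40 Tdp1-/-;hTDP1 cells in the absence of CPT. ATP levels (CellTiter-Glo luminescence) are recorded after a ≥48 hr, 37 °C incubation.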
On the % scale 0 is the no-effect control and ±100 the full control effect; potency means the concentration at half of the fitted maximal effect; tags describe the fitted curve by direction and shape.

SMILES | Potency | activity change, negative = growth inhibition
CCOc1ccc(-c2noc(CCCC(=O)NCC3CCCO3)n2)cc1OC (centres undefined) | inconclusive [inhibitor, single point] | 
CC1(c2nc3ccccc3[nH]2)CCC(=O)N1Cc1ccc(F)cc1 (centres undefined) | inactive | 
Cc1cc(NC(=O)C2CCCC2)n(-c2nc3ccccc3[nH]2)n1 | inconclusive [inhibitor, single point] | 
COc1ccc2cc3cc(C(=O)NCCc4ccc(OC)c(OC)c4)oc3nc2c1 | active: 18.4 µM | 
O=C(Nc1ccccc1Cl)c1cc(=O)c2ccccc2o1 | inconclusive [inhibitor, single point] | 
COC(=O)c1ccc(NC(=O)C2CCN(C(=O)c3ccc(F)cc3)CC2)cc1 | inconclusive [inhibitor, single point] | 
CC(CNc1ccccc1O)C(=O)O (centres undefined) | active: 25.9 µM | 
Cn1c(COc2ccc(Br)cc2)nnc1SC1CCc2ccccc2C1=O (centres undefined) | inconclusive [inhibitor, single point] | 
CCCCn1nc2cc(C(=O)NCc3ccc(C(F)(F)F)cc3C(F)(F)F)ccc2c1OCC | inconclusive [inhibitor, single point] | 
CC(C)CN1C(=O)N(c2ccc(Cl)cc2)C(C)(O)CC1(C)C (centres undefined) | inconclusive [inhibitor, partial curve] | 
CCCn1c(C(O)c2ccc(OC)cc2)nc2ccccc21 (centres undefined) | inactive | 
Cc1c(Cc2ccccc2)c(=O)oc2cc(OCC(=O)N3CCC(C(N)=O)CC3)ccc12 | inconclusive [inhibitor, single point] | 
COc1ccc(Br)cc1/C=N/NC(=O)c1ccc(COc2ccc3c(c2)CCC3)o1 | inconclusive [inhibitor, single point] | 
COc1cccc(-c2coc3c(C)c4oc(=O)c(CCC(=O)O)c(C)c4cc23)c1 | inconclusive [inhibitor, partial curve] | 
COC(=O)c1cc(S(=O)(=O)Nc2cccc(OC)c2)cn1C | active: 23.1 µM | 
CS(=O)(=O)N(Cc1ccco1)Cc1ccccc1Cl | inactive | 
CCOc1ccc(Nc2cc3n(c(=O)n2)CCc2cc(OC)c(OC)cc2-3)cc1 | inconclusive [inhibitor, partial curve] | 
CC[C@]12c3[nH]c4cc(-c5ccco5)ccc4c3CCN1C(=O)[C@@H](CC(=O)NCc1cccc(C(F)(F)F)c1)C[C@@H]2C(=O)N1CCN(C(=O)c2ccco2)CC1 | active: 8.2 µM | 
CC(=O)NC(c1ccccc1)c1nc(-c2ccc3ccccc3c2)cs1 (centres undefined) | inconclusive [inhibitor, single point] | 
C/C(=N\NC(=O)c1cccc([N+](=O)[O-])c1)c1cccc(NC(=O)C2CC2)c1 | inconclusive [inhibitor, partial curve] | 
COc1ccccc1CNC(=O)CCCCn1c(=O)c2ccccc2n(CC(=O)Nc2cc(Cl)ccc2C)c1=O | active: 10.3 µM | 
Cc1ccc(NC(=O)c2ccc(Cl)c(S(=O)(=O)NCC3CCCO3)c2)c(O)c1 (centres undefined) | inconclusive [inhibitor, single point] | 

SMILES | Potency | activity change, negative = growth inhibition
O=C(CCn1nnc2ccccc21)Nc1nnc(Cc2ccccc2)s1 | inconclusive [inhibitor, partial curve] | 
COc1ccc(C2CC(c3ccc([N+](=O)[O-])cc3)=NN2C(=O)c2ccccc2)cc1OC (centres undefined) | inconclusive [inhibitor, single point] | 
Oc1cccc(C=NCc2ccccc2)c1O | inconclusive [inhibitor, partial curve, poor fit] | 
CCOc1ccc(C(=O)CCC(=O)NCC(=O)Nc2c(C)cccc2C)cc1 | inactive | 
Cc1ccc(COC(=O)CN2C(=O)NC3(CCCC3)C2=O)cc1 | inconclusive [inhibitor, single point] | 
O=C(NCC1CCN(Cc2ccccc2Cl)CC1)Nc1cccc(Cl)c1 | active: 18.4 µM | 
O=C(NC(=S)NNC(=O)c1cccs1)c1ccco1 | inconclusive [inhibitor, single point] | 
Cc1ccc(S(=O)(=O)N2CCN(C(=O)n3ccnc3)CC2)cc1 | active: 11.6 µM | 
CC(=O)c1cccc(NC(=O)N2CCC(NC(=O)C34CC5CC(CC(C5)C3)C4)CC2)c1 | inconclusive [inhibitor, partial curve] | 
Nc1cc(-c2ccccc2)ccc1O | inconclusive [inhibitor, single point] | 
CCNC(=S)Nc1cc(Cl)ccc1Oc1ccccc1 | inconclusive [inhibitor, single point] | 
CCCCCC(O)c1cccc(OCc2ccc3ccccc3n2)c1 (centres undefined) | inconclusive [inhibitor, single point] | inactive: -7.93% [at 4.12 µM]
N[C@@H](Cc1ccccc1)C(=O)N1CCC(C(=O)N[C@@H](CCC(=O)O)C(=O)O)CC1 | inactive | 
O=C(Nc1ccc(SC(F)F)cc1)c1cccc2nc3ccccc3nc12 | inconclusive [inhibitor, partial curve] | 
Cc1ccccc1NC(=O)c1ccc(OCC(=O)Nc2ccccc2F)cc1 | inconclusive [inhibitor, single point] | 
C[C@@H]1CN([C@H](C)CO)C(=O)CCCn2nncc2CO[C@H]1CN(C)S(=O)(=O)c1ccccc1 | inconclusive [inhibitor, partial curve, poor fit] | 
O=c1c2[nH]c3ccccc3c2nc(SCc2cccc(F)c2)n1-c1ccccc1 | active: 23.1 µM | 
CN(CC(=O)Nc1ccccc1Cl)CC(=O)Nc1ccccc1[N+](=O)[O-] | active: 20.6 µM | 
COc1ccc(Nc2ccc(C(F)(F)F)cc2[N+](=O)[O-])cn1 | inactive | 
CC(C)CC(=O)NNC(=O)c1ccc(Cl)cc1 | inactive | 
O=C(CN(Cc1ccco1)C(=O)CNS(=O)(=O)c1ccc(Cl)cc1)NCc1ccc(F)cc1 | inconclusive [inhibitor, partial curve, poor fit] | 
